Drawing on publication PMC10512297, “The Penicillium chrysogenum tom1 Gene a Major Target of Transcription Factor MAT1-1-1 Encodes a Nuclear Protein Involved in Sporulation”, this text covers binding for four molecules.

Results are given in words; binding and its absence hold for the method and conditions named. Some entries that bind do so weakly or less than the wild type.

What all share (assay): two-hybrid; Gal4 AD fusions (pGADT7, prey, PJ69-4a) mated with Gal4 BD fusions (pGBKT7, bait, PJ69-4α); growth on SD-Leu-Trp-His-Ade and blue colour on X-α-Gal
Test [1] has as its target T1, N-terminus of MAT1-1-1 (1-118 aa; MAT1-Nt) (Penicillium chrysogenum) (UniProt B1GVB9).
T1 sequence: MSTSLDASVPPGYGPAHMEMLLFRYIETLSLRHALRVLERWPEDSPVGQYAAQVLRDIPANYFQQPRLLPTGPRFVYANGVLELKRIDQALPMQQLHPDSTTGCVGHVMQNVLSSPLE

Test [2] concerns the target T2, N-terminus of MAT1-2-1 (1-131 aa; MAT2-Nt) (Penicillium chrysogenum) (UniProt B1GVC0).
T2 sequence: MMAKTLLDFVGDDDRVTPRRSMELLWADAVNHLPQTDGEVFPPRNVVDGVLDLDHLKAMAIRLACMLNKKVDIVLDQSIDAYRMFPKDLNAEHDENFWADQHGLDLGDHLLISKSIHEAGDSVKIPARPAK

Test [3] has as its target T3, fragment spanning N-terminus and DNA-binding domain of MAT1-1-1 (1-220 aa; MAT1-NtBD) (Penicillium chrysogenum) (UniProt B1GVB9).
T3 sequence: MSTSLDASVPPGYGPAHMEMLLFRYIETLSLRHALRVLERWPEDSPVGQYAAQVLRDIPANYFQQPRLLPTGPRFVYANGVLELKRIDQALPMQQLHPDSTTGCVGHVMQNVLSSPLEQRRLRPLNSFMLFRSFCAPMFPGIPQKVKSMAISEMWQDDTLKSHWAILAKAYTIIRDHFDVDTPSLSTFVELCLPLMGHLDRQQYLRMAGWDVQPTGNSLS

B1: full-length MAT1-2-1 (1-303 aa; MAT2) (protein, UniProt B1GVC0 1-303)
chain: MMAKTLLDFVGDDDRVTPRRSMELLWADAVNHLPQTDGEVFPPRNVVDGVLDLDHLKAMAIRLACMLNKKVDIVLDQSIDAYRMFPKDLNAEHDENFWADQHGLDLGDHLLISKSIHEAGDSVKIPARPAKVPRPPNCFILYRQANHHLVKDANPGVSNNEISRILGARWNNESPEVREQFTHLADELKKEHAIKHPDYQYAPRRPSERKRRTPRSRANCLPFVQADSHYEDMFDDADFEDRTISIDDHFITELNDNGLLFGPNGVEPLSPPFTHEECFEMSNDLTSGNSLASMEFLPMNSVF
For B1, the binding result in test [1] and in test [2] was “binds” throughout.

B2: N-terminus of MAT1-2-1 (1-131 aa; MAT2-Nt) (domain or fragment, UniProt B1GVC0 1-131)
chain: MMAKTLLDFVGDDDRVTPRRSMELLWADAVNHLPQTDGEVFPPRNVVDGVLDLDHLKAMAIRLACMLNKKVDIVLDQSIDAYRMFPKDLNAEHDENFWADQHGLDLGDHLLISKSIHEAGDSVKIPARPAK
On to B2, for which the binding result in test [1] was “binds”.

B3: MAT1-1-1 polypeptide comprising only the DNA-binding domain and the C-terminus (109-342 aa; MAT1-CtBD) (domain or fragment, UniProt B1GVB9 109-342)
chain: MQNVLSSPLEQRRLRPLNSFMLFRSFCAPMFPGIPQKVKSMAISEMWQDDTLKSHWAILAKAYTIIRDHFDVDTPSLSTFVELCLPLMGHLDRQQYLRMAGWDVQPTGNSLSLRKIGLSNLASLSVPAIAVDQVVKHCIDNNYAQIRNEEWDKHILENGQVFAVDPAFSATVRDPQNWVFNNVPQWPIEEFEVDEMYSSLDTERDLGLPVIYDPNKNPSVAATMANLDRIFGHN
On to B3, for which the binding entry in test [1], in test [3] and in test [2] was “no binding” throughout.

B4: fragment spanning N-terminus and DNA-binding domain of MAT1-1-1 (1-220 aa; MAT1-NtBD) (domain or fragment, UniProt B1GVB9 1-220)
chain: MSTSLDASVPPGYGPAHMEMLLFRYIETLSLRHALRVLERWPEDSPVGQYAAQVLRDIPANYFQQPRLLPTGPRFVYANGVLELKRIDQALPMQQLHPDSTTGCVGHVMQNVLSSPLEQRRLRPLNSFMLFRSFCAPMFPGIPQKVKSMAISEMWQDDTLKSHWAILAKAYTIIRDHFDVDTPSLSTFVELCLPLMGHLDRQQYLRMAGWDVQPTGNSLS
Regarding B4, the binding entry in test [1] is listed as “binds”.
